About 5,300 (4.4%) of roughly 120,000 compounds were called active. The shares of active, inactive and inconclusive entries below differ from those in the screen. The call rests on the fitted dose curve; in most records, active means well fitted inhibition curve with a large enough effect; inconclusive means small, poorly fitted or top-dose-only effect; inactive means no such curve, though single readings can be large or run the other way. A potency beside an inconclusive call is a rough fit, not a confirmed value.
Assay: qHTS Primary assay for Inhibitors of Plasmodium falciparum Dd2 growth in vitro; further: nearly all actives have a fitted effect of over 65% in size
Details: P. falciparum Dd2 growth, SYBR Green, 72 h; series mostly up to 28.9 µM
How it was run: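 Readout: SYBR Green fluorescence, 485 nm excitation, 535 nm emission, after ~16 h lysis at 37C. Before that, Dd2-infected red cells (2.5% hematocrit) grew 72 h with compound, 29 uM top final concentration.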
Potency means the concentration at half of the fitted maximal effect; tags describe the fitted curve by direction and shape.

Compound | Potency
O=C1c2cnc(-c3ccsc3)nc2OCCN1CC1CC1 | inconclusive: 7.94 µM [inhibitor, partial curve]
O=c1[nH]c(N2CCOCC2)nc2c1CCN(Cc1ccc(F)c(Cl)c1)CC2 | inconclusive: 1.78 µM [inhibitor, partial curve, poor fit]
CCc1[nH]nc(C(=O)N(Cc2cccnc2)CC2CCN(C3CCCC3)CC2)c1C | inactive
CCOC(=O)c1cc2c(=O)n3ccccc3nc2n(Cc2ccco2)c1=NC(=O)c1ccc(Br)cc1 | inconclusive: 10 µM [inhibitor, single point]
COc1cccc(N2C(=O)NC(=NC3CCCCC3)C23CCN(CC2CC2)C3)c1 (configuration not stated) | inconclusive: 7.94 µM [inhibitor, partial curve, poor fit]
Cc1cccc(C(=O)NCc2nnc3cc(-c4nc(C(C)C)no4)ccn23)c1 | active: 10 µM
O=C(c1cccnc1)N1CCC2(CC1)C(=O)NN=C2C1CC1 | inactive
COc1ccccc1C(=O)N1CCC(N2C[C@H](O)C[C@H]2C(=O)NC2CCCCC2)CC1 | inconclusive: 12.6 µM [inhibitor, single point]
O=C(CSc1oc(-c2ccccc2)nc1S(=O)(=O)c1ccc(Br)cc1)c1ccccc1 | inconclusive: 17.8 µM [inhibitor, single point]
CCc1nncn1C1CCN(S(=O)(=O)c2cc(F)cc(F)c2)CC1 | inactive
COc1ccc(NC(=O)c2ccco2)cc1NC(=O)COc1cccc(C)c1C | inconclusive: 1.12 µM [inhibitor, partial curve, poor fit]
CC(C)c1nc2c(c(-c3ccc(O)cc3)n1)CN(Cc1cccnc1)CC2 | inactive
O=C(CCn1ccn2nc3c(c2c1=O)CCCC3)NCc1ccc(F)cc1 | inconclusive: 12.6 µM [inhibitor, single point]
COc1ccc(CCN2CCC(CN(C)C(=O)NCc3ccccc3)CC2)cc1 | inconclusive: 3.98 µM [inhibitor, partial curve, poor fit]
Cc1ccc2c(c1)N(C(=O)N1CCC(C(=O)NCc3cccc(Br)c3)CC1)CCO2 | inconclusive: 14.1 µM [inhibitor, partial curve, poor fit]
Cc1ccc(-c2nc(NCc3ccncc3)ncc2C(=O)O)cc1 | inactive
COc1cccc(N2C(=O)NC(=NC3CCCCC3)C23CCN(Cc2ccc(N(C)C)cc2)CC3)c1 | inconclusive: 14.1 µM [inhibitor, partial curve, poor fit]
O=C(Cc1ccc(F)cc1)N1CCC(N2CC3CCCN3C2=O)CC1 (configuration not stated) | inactive
COc1ccccc1NC(=O)N1C[C@@H](F)C[C@H]1C(=O)N1CCc2ccccc2C1 | active: 8.91 µM
COCC(=O)N(C1CCOCC1)C1CCN(C(=O)c2cc(F)ccc2F)CC1 | inactive
COc1ccc(-c2nc(-c3cc4cc(Br)ccc4oc3=O)cs2)cc1 | inactive

Compound | Potency
c1ccc2oc(CN3Cc4[nH]cnc4C[C@H]3c3nc(-c4cnccn4)no3)cc2c1 | inconclusive: 15.8 µM [inhibitor, single point]
O=C(C1CCCC1)N1CCC2(CC1)CC(N(Cc1ccccc1)C1CC1)CCO2 (configuration not stated) | inconclusive: 3.98 µM [inhibitor, partial curve, poor fit]
COc1ccc(CN2C(=O)COC[C@H]2C(=O)N2CCC(C)CC2)c(OC)c1 | inactive
CCCCOc1ccc(C(=O)NCC(c2ccc(Cl)cc2)N2CCOCC2)cc1 (configuration not stated) | inconclusive: 11.2 µM [inhibitor, single point]
CCCCN(CC)C(=O)c1nnn2cc(-c3ccc(Cl)cc3)[nH]c(=O)c12 | inactive
O=C(NC1CCN(Cc2ccccc2)CC1)[C@H]1CN(Cc2ccccc2)C[C@H]1C(=O)O | inactive
Cc1noc(C)c1-c1cc2c(cc(C)n2CCN(C)C)c(-c2cccc(O)c2)n1 | inconclusive: 0.501 µM [inhibitor, full curve, poor fit]
CC1=C[C@@H](CN(C)CCO)[C@H](C(C)C)C[C@H]1Cc1nnc(-c2ccccc2)o1 | inconclusive: 7.94 µM [inhibitor, partial curve, poor fit]
Cc1cccc(C)c1-n1ncc(C(=O)NCCCN2CCCCC2)c1C1CCN(C(=O)OC(C)(C)C)CC1 | active: 8.91 µM
CCOC(=O)c1ccc(N2C(=O)c3n[nH]c(-c4ccco4)c3C2c2ccc(OC)cc2OC)cc1 (configuration not stated) | inconclusive: 10 µM [inhibitor, single point]
COc1ccc(-c2cc(-c3ccc(N4CCOCC4)nc3)cn3cncc23)cc1 | active: 0.794 µM
COc1cccc(-c2nc(S(=O)(=O)c3ccc(C)cc3)c(N3CCCCCC3)o2)c1 | inconclusive: 10 µM [inhibitor, partial curve, poor fit]
O=c1c2nc(-c3ccc4c(c3)OCO4)ccc2ncn1Cc1ccccn1 | inconclusive: 15.8 µM [inhibitor, single point]
CC(=O)c1ccc(NC(=O)Nc2ccc3snnc3c2)cc1 | inconclusive: 11.2 µM [inhibitor, single point]
O=C(COc1ccc(F)cc1)N1CCCC(c2nc(C3CCOCC3)no2)C1 (configuration not stated) | inconclusive: 10 µM [inhibitor, single point]
C#CCNC(=O)c1cnc2cc(C)nn2c1 | inactive
O=c1c2nc(OCc3ccccc3)ccc2ncn1Cc1ccccn1 | inconclusive: 10 µM [inhibitor, partial curve]
COc1ccc(-c2cc(N3CCC(NC(=O)c4ccc(N(C)C)cc4)CC3)n[nH]2)cc1 | inconclusive: 1.26 µM [inhibitor, partial curve, poor fit]
COc1ccc(-c2ccc3nnc(CNC(=O)c4cccc5[nH]ccc45)n3n2)cc1 | inconclusive: 8.91 µM [inhibitor, partial curve, poor fit]
CC(=O)N(C1CC1)C1CCOC2(CCN(C(=O)COc3ccc(C)cc3)CC2)C1 (configuration not stated) | inconclusive: 17.8 µM [inhibitor, single point]
COc1ccc(-c2[nH]ncc2CN2CCCC(C(=O)NCc3ccccc3)CCNC(=O)CC2)cc1 (configuration not stated) | inconclusive: 7.94 µM [inhibitor, partial curve, poor fit]

— PubChem BioAssay AID1347417 (National Center for Advancing Translational Sciences (NCATS), 2020)
